The list shows a part of the results. The energies were worked out here from pooled read counts, against the library average; single values are noisy.
Molecular target: T1, Pho4 (S. cerevisiae) (UniProt P07270)
T1 sequence: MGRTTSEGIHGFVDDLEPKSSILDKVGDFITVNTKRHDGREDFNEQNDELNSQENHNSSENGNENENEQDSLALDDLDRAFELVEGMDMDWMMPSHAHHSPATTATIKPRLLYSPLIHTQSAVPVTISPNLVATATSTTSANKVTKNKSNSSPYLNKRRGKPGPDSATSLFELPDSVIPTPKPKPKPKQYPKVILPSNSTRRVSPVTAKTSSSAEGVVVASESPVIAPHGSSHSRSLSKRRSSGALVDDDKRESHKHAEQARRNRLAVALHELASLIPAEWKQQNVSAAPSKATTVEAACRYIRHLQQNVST
Experiment: relative binding free energy (BET-seq); higher = weaker binding
Conditions: reference: library average

| Sequence | relative binding free energy |
| --- | --- |
| TGAGTCACGTGAACTG | 0.29 kcal/mol |
| GTGTGCACGTGGATGT | 0.06 kcal/mol |
| TGGAACACGTGGGTTA | -0.19 kcal/mol |
| GGGGGCACGTGTGCTC | -0.2 kcal/mol |
| GGGGACACGTGTCAAG | 0.06 kcal/mol |
| GGTAGCACGTGAGGGG | 0.27 kcal/mol |
| CGGTGCACGTGTTCGT | 0.03 kcal/mol |
| TGTTGCACGTGGTACT | 0 kcal/mol |
| ACTCTCACGTGGTGGT | 0.07 kcal/mol |
| GTTATCACGTGTCTGT | 0.2 kcal/mol |
| TTGTGCACGTGTCATA | 0.06 kcal/mol |
| TGTGGCACGTGTACGA | -0.17 kcal/mol |
| CTGATCACGTGTGAGT | 0.15 kcal/mol |
| GAAAACACGTGGTGGG | -0.06 kcal/mol |
| TGAAACACGTGCTTGG | 0.05 kcal/mol |
| GAAGGCACGTGGTCTA | -0.06 kcal/mol |
| TTATTCACGTGTGGTG | 0.28 kcal/mol |
| TCTGACACGTGTGGTT | -0.08 kcal/mol |
| TTAAGCACGTGGGCCT | -0.16 kcal/mol |
| TGTTACACGTGTTTGG | 0.17 kcal/mol |
| TTTTTCACGTGTGCTG | 0.28 kcal/mol |
| ATTGGCACGTGTGAGG | -0.03 kcal/mol |
| GTGGCCACGTGGGTCA | -0.19 kcal/mol |

| Sequence | relative binding free energy |
| --- | --- |
| TCTGTCACGTGATTGT | 0.25 kcal/mol |
| GGGCGCACGTGGATCG | 0.03 kcal/mol |
| CCGGTCACGTGTGAGG | 0.15 kcal/mol |
| AATAACACGTGGATGG | 0.01 kcal/mol |
| GTGGGCACGTGACTAG | 0.1 kcal/mol |
| TGGTGCACGTGGTCAC | -0.01 kcal/mol |
| TGTTACACGTGTGCAT | -0.04 kcal/mol |
| GCTGTCACGTGTTGAG | 0.24 kcal/mol |
| ATTGTCACGTGGGCCT | -0.02 kcal/mol |
| AAGTACACGTGGTTTA | 0.02 kcal/mol |
| TATATCACGTGAGTGC | 0.25 kcal/mol |
| TTCTGCACGTGTTGTT | 0.06 kcal/mol |
| ACGCGCACGTGTGGGT | -0.09 kcal/mol |
| TTGTGCACGTGGGCAC | -0.23 kcal/mol |
| TAATGCACGTGGTAAT | -0.03 kcal/mol |
| TGGGGCACGTGGAGTA | -0.17 kcal/mol |
| GTTTACACGTGAAGCG | 0.36 kcal/mol |
| TATAGCACGTGCATGT | -0.08 kcal/mol |
| AGGTGCACGTGAATTA | 0.2 kcal/mol |
| TATGCCACGTGGAGGT | -0.07 kcal/mol |
| GGGAACACGTGAGGAG | 0.28 kcal/mol |
| ATTGACACGTGTAGTT | 0.06 kcal/mol |
| AGTGGCACGTGAGTGC | -0.01 kcal/mol |

| Sequence | relative binding free energy |
| --- | --- |
| TGATGCACGTGATGTC | 0.07 kcal/mol |
| TATTACACGTGGGATG | -0.1 kcal/mol |
| TTTACCACGTGGGTGT | -0.21 kcal/mol |
| TCTTTCACGTGCAGGT | 0.15 kcal/mol |
| CTAGTCACGTGGAGGA | 0.06 kcal/mol |
| CGGGACACGTGCAGGT | 0.02 kcal/mol |
| ATTTGCACGTGTGTAT | 0.08 kcal/mol |
| GTATTCACGTGATGGA | 0.27 kcal/mol |
| AGTAGCACGTGAAGTG | 0.05 kcal/mol |
| AATTGCACGTGTTCAG | 0.06 kcal/mol |
| AGTAGCACGTGGGGCT | -0.24 kcal/mol |
| TATTTCACGTGACGTC | 0.38 kcal/mol |
| AATTGCACGTGCGTTG | -0.13 kcal/mol |
| TTGGTCACGTGTTCTG | 0.12 kcal/mol |
| GAGAGCACGTGAGGGT | 0.23 kcal/mol |
| TTGTCCACGTGTATCG | 0.07 kcal/mol |
| CGTGTCACGTGCTATT | 0.07 kcal/mol |
| GTGTTCACGTGTACTC | 0.34 kcal/mol |
| TTTCACACGTGGGTAA | -0.08 kcal/mol |
| ATTTCCACGTGCGTGG | -0.03 kcal/mol |
| TTATGCACGTGAGTAT | 0.2 kcal/mol |
| AGTGGCACGTGTGGGT | -0.14 kcal/mol |
| TAGTGCACGTGTGAGT | 0.05 kcal/mol |

| Sequence | relative binding free energy |
| --- | --- |
| TTGTTCACGTGGGCTG | 0.12 kcal/mol |
| GAAGTCACGTGAAGTA | 0.4 kcal/mol |
| TTGTGCACGTGCTTCT | -0.13 kcal/mol |
| TAGGTCACGTGCTGGG | 0.09 kcal/mol |
| TGGTTCACGTGTGAGT | 0.29 kcal/mol |
| GAGGTCACGTGCTTTA | 0.19 kcal/mol |
| CGGGCCACGTGTTGTG | -0.12 kcal/mol |
| CTTTTCACGTGTTAAA | 0.18 kcal/mol |
| TGAAGCACGTGTGTTA | -0.05 kcal/mol |
| TCGTTCACGTGGTAAG | 0.2 kcal/mol |
| TAGTACACGTGGATGA | 0.06 kcal/mol |
| ACAAGCACGTGGGGTG | -0.16 kcal/mol |
| TGGTTCACGTGTATTG | 0.19 kcal/mol |
| GCTAGCACGTGGTTTT | 0.01 kcal/mol |
| GATGGCACGTGGGATT | -0.04 kcal/mol |
| GTTATCACGTGTAGTA | 0.18 kcal/mol |
| TGGGGCACGTGGTTCG | -0.08 kcal/mol |
| GTGGGCACGTGGCTGG | -0.04 kcal/mol |
| CTTGTCACGTGGTGAT | 0.02 kcal/mol |
| TACAGCACGTGTGGGC | -0.05 kcal/mol |
| CTTGACACGTGAAGTG | 0.12 kcal/mol |
| TCTATCACGTGATTGT | 0.11 kcal/mol |
| TGGATCACGTGAAGCG | 0.36 kcal/mol |

| Sequence | relative binding free energy |
| --- | --- |
| ATCTGCACGTGGTATA | -0.2 kcal/mol |
| AATAGCACGTGTGTTT | 0.07 kcal/mol |
| GTTTTCACGTGTGTGC | 0.37 kcal/mol |
| TGCGTCACGTGTGTCT | 0.07 kcal/mol |
| GTGTACACGTGGGGGC | -0.13 kcal/mol |
| AGGTGCACGTGGAAGA | -0.01 kcal/mol |
| GGGTTCACGTGATGAT | 0.49 kcal/mol |
| AGCATCACGTGTGGTG | 0.24 kcal/mol |
| CTGGTCACGTGTGTCG | -0.06 kcal/mol |
| TATGACACGTGCATGG | -0.01 kcal/mol |
| AGTCTCACGTGCGTTG | 0.11 kcal/mol |
| GGTTTCACGTGGTGGA | 0.32 kcal/mol |
| AATGTCACGTGGGATG | -0.04 kcal/mol |
| GTGACCACGTGTGTTT | -0.04 kcal/mol |
| ATAGCCACGTGAGGTT | 0.26 kcal/mol |
| TAGATCACGTGATGTC | 0.43 kcal/mol |
| ATCATCACGTGTGGTG | 0.08 kcal/mol |
| CTCGGCACGTGTGGTA | -0.09 kcal/mol |
| GGATGCACGTGTTAAG | 0.01 kcal/mol |
| CATTGCACGTGAGCAG | 0.46 kcal/mol |
| GGTGCCACGTGTGGCG | -0.04 kcal/mol |
| GTGTGCACGTGTTTGG | 0.03 kcal/mol |
| CATGGCACGTGGGGGG | -0.24 kcal/mol |

— the BET-seq Pho4 binding data (Le et al. 2018)
